In patent publication US10299477B2 (priority 2015, dated 2019):

Key:
Type in all cases: in vivo
Puccinia recondita = assay: Test Example E: Brown rust on wheat; conditions: for Test E (control value class, brown rust on wheat): in vivo; for Test E control value (brown rust on wheat): preventive, control value class
Excerpt: [Test Example E] Brown Rust on Wheat

Botrytis cinerea = assay: Test Example B: Gray mold on tomato; conditions: for Test B (control value class, gray mold on tomato): in vivo; for Test B control value (gray mold on tomato): preventive, control value class
Excerpt: [Test Example B] Gray Mold on Tomato
Seeds of a test plant (tomato variety: Oogata Fukuju) were planted followed by cultivating until three to five first leaves (true leaves) appeared.

Alternaia brassicicola = assay: Test Example C: Alternaria sooty spot on cabbage; conditions: for Test C (control value class, Alternaria sooty spot on cabbage): in vivo; for Test C control value (Alternaria sooty spot on cabbage): preventive, control value class
Excerpt: [Test Example C] Alternaria Sooty Spot on Cabbage
Seeds of a test plant (cabbage variety: Shikidori) were planted followed by cultivating until the cotyledons extended.

Plasmopara viticola = assay: Test Example G: Downy mildew on vine; conditions: for Test G (control value class, downy mildew on vine): 250 ppm, sprayed 2.5 ml/pot before inoculation; for Test G (control value class): 250 ppm spray; for Test G control value (downy mildew on vine): 250 ppm spray (2.5 ml/pot), preventive, control value class
Excerpt: [Test Example G] Downy Mildew on Vine
Seeds of a test plant (grape variety: Neomuscat) were planted followed by cultivating until three to four first leaves appeared. […] After the sprayed dilutions were dried, a zoosporangia suspension (1-2×10^4 zoosporangia/ml) of Plasmopara viticola was inoculated to the plants by spraying.

[1] = system: Blumeria graminis f sp. hordei; assay: Test Example D: Powdery mildew on barley; conditions: for Test D (control value class, powdery mildew on barley): in vivo; for Test D control value (powdery mildew on barley): preventive, control value class
Excerpt: [Test Example D] Powdery Mildew on Barley
After the sprayed dilutions were dried, conidia of Blumeria graminis f sp. hordei were inoculated to the plants by shaking off.

[2] = evaluated 7-10 days after inoculation
[3] = Brown rust on wheat, control value=100{1-(n/3)}
[4] = Gray mold on tomato, control value=100{1-(n/3)}
[5] = Alternaria sooty spot on cabbage, control value=100{1-(n/3)}
[6] = Downy mildew on vine, 2.5 ml/pot, evaluated 7-10 days after inoculation
[7] = Powdery mildew on barley, control value=100{1-(n/3)}

Row | SMILES | Test E (control value class, brown rust on wheat) (Puccinia recondita) | Test B (control value class, gray mold on tomato) (Botrytis cinerea) | Test C (control value class, Alternaria sooty spot on cabbage) (Alternaia brassicicola) | Test G (control value class, downy mildew on vine) (Plasmopara viticola; [2]) | Test D (control value class, powdery mildew on barley) [1] | also measured
1 | CCn1c(-c2c(F)cc(OC)cc2F)c(-c2ccccc2Br)ccc1=O [Compound 667] | H (H shows more than 50% of control values) | H (H shows more than 50% of control values) | H (H shows more than 50% of control values) | H (H shows more than 50% of control values) | H (H shows more than 50% of control values) | 
2 | Cn1c(-c2c(F)cc(F)cc2F)c(-c2ccccc2)cc(Cl)c1=O [Compound 779] |  |  |  |  |  | Test E (control value class) (Puccinia recondita; [3]): H (H shows more than 50% of control values); Test B (control value class) (Botrytis cinerea; [4]): H (H shows more than 50% of control values); Test C (control value class) (Alternaia brassicicola; [5]): H (H shows more than 50% of control values); Test G (control value class) (Plasmopara viticola; [6]): H (H shows more than 50% of control values); Test D (control value class) [1, 7]: H (H shows more than 50% of control values)
3 | CCn1c(-c2c(F)cc(OC)cc2F)c(-c2cc(F)cc(F)c2Cl)cc(C)c1=O [Compound 714] | H (H shows more than 50% of control values) | H (H shows more than 50% of control values) | H (H shows more than 50% of control values) | H (H shows more than 50% of control values) | H (H shows more than 50% of control values) | 
4 | CCn1c(-c2c(F)cc(Cl)cc2F)c(-c2cc(F)ccc2Cl)cc(Br)c1=O [Compound 603] | H (H shows more than 50% of control values) | L (L shows 50% or less of control values) | H (H shows more than 50% of control values) | L (L shows 50% or less of control values) | H (H shows more than 50% of control values) | 
5 | CCn1c(-c2c(F)cccc2F)c(-c2cc(OCCC#N)ccc2Cl)ccc1=O [Compound 250] |  |  |  |  |  | Test E control value (brown rust on wheat) (Puccinia recondita; 250 ppm spray): H (H shows more than 50% of control values); Test B control value (gray mold on tomato) (Botrytis cinerea; 250 ppm spray): H (H shows more than 50% of control values); Test C control value (Alternaria sooty spot on cabbage) (Alternaia brassicicola; 250 ppm spray): H (H shows more than 50% of control values); Test G control value (downy mildew on vine) (Plasmopara viticola; 7-10 days after inoculation): H (H shows more than 50% of control values); Test D control value (powdery mildew on barley) ([1]; 250 ppm spray): L (L shows 50% or less of control values)
6 | CCn1c(-c2c(F)cccc2Br)c(-c2cc(OC)cc(OC)c2Cl)ccc1=O [Compound 177] |  |  |  |  |  | Test E control value (Puccinia recondita; Brown rust on wheat): H (H shows more than 50% of control values); Test B control value (Botrytis cinerea; Gray mold on tomato): H (H shows more than 50% of control values); Test C control value (Alternaia brassicicola; Alternaria sooty spot on cabbage): H (H shows more than 50% of control values); Test G control value (Plasmopara viticola; Downy mildew on vine, 250 ppm sprayed before inoculation, 7-10 days after inoculation): H (H shows more than 50% of control values); Test D control value ([1]; Powdery mildew on barley): H (H shows more than 50% of control values)
7 | COc1cccc(-c2cc(Cl)c(=O)n(C)c2-c2c(F)cccc2F)c1Cl [Compound 785] |  |  |  |  |  | Test E (control value class) (Puccinia recondita; [3]): H (H shows more than 50% of control values); Test B (control value class) (Botrytis cinerea; [4]): H (H shows more than 50% of control values); Test C (control value class) (Alternaia brassicicola; [5]): H (H shows more than 50% of control values); Test G (control value class) (Plasmopara viticola; [6]): H (H shows more than 50% of control values); Test D (control value class) [1, 7]: H (H shows more than 50% of control values)
8 | CCn1c(-c2c(F)cc(Br)cc2F)c(-c2cc(OC)cc(OC)c2)ccc1=O [Compound 199] |  |  |  |  |  | Test E control value (brown rust on wheat) (Puccinia recondita; 250 ppm spray): H (H shows more than 50% of control values); Test B control value (gray mold on tomato) (Botrytis cinerea; 250 ppm spray): H (H shows more than 50% of control values); Test C control value (Alternaria sooty spot on cabbage) (Alternaia brassicicola; 250 ppm spray): H (H shows more than 50% of control values); Test G control value (downy mildew on vine) (Plasmopara viticola; 7-10 days after inoculation): L (L shows 50% or less of control values); Test D control value (powdery mildew on barley) ([1]; 250 ppm spray): L (L shows 50% or less of control values)
9 | Cn1c(-c2c(F)cc(F)cc2F)c(-c2cc(F)c(F)cc2F)cc(Cl)c1=O [Compound 653] | H (H shows more than 50% of control values) | H (H shows more than 50% of control values) | H (H shows more than 50% of control values) | L (L shows 50% or less of control values) | L (L shows 50% or less of control values) | 
10 | CCn1c(-c2c(F)cc(F)cc2F)c(-c2cccc(F)c2F)cc(Br)c1=O [Compound 567] | H (H shows more than 50% of control values) | H (H shows more than 50% of control values) | H (H shows more than 50% of control values) | H (H shows more than 50% of control values) | H (H shows more than 50% of control values) | 
11 | CCn1c(-c2c(F)cc(OC)cc2F)c(-c2cccc(F)c2C)ccc1=O [Compound 697] | H (H shows more than 50% of control values) | H (H shows more than 50% of control values) | H (H shows more than 50% of control values) | H (H shows more than 50% of control values) | H (H shows more than 50% of control values) | 
12 | O=c1ccc(-c2cc(Cl)ccc2Cl)c(-c2c(F)cccc2F)n1CC(F)F [Compound 448] |  |  |  |  |  | Test E (control value class) (Puccinia recondita; brown rust on wheat, Puccinia recondita, 250 ppm spray): L (L shows 50% or less of control values); Test B (control value class) (Botrytis cinerea; gray mold on tomato, Botrytis cinerea, 250 ppm spray): H (H shows more than 50% of control values); Test C (control value class) (Alternaia brassicicola; Alternaria sooty spot on cabbage, 250 ppm spray): L (L shows 50% or less of control values); Test G (control value class) (Plasmopara viticola; downy mildew on vine, Plasmopara viticola, 7-10 days after inoculation): L (L shows 50% or less of control values); Test D (control value class) ([1]; powdery mildew on barley, 250 ppm spray): H (H shows more than 50% of control values)
13 | CCn1c(-c2c(F)cc(F)cc2F)c(-c2cc(F)cc(F)c2Cl)cc(Cl)c1=O [Compound 585] | H (H shows more than 50% of control values) | H (H shows more than 50% of control values) | H (H shows more than 50% of control values) | L (L shows 50% or less of control values) | H (H shows more than 50% of control values) | 
14 | CCn1c(-c2c(F)cc(Br)cc2F)c(-c2cc(F)ccc2Cl)ccc1=O [Compound 692] | H (H shows more than 50% of control values) | H (H shows more than 50% of control values) | H (H shows more than 50% of control values) | L (L shows 50% or less of control values) | H (H shows more than 50% of control values) | 
15 | COc1ccc(-c2cc(Br)c(=O)n(C)c2-c2c(F)cc(F)cc2F)c(Cl)c1 [Compound 767] |  |  |  |  |  | Test E (control value class) (Puccinia recondita; [3]): H (H shows more than 50% of control values); Test B (control value class) (Botrytis cinerea; [4]): H (H shows more than 50% of control values); Test C (control value class) (Alternaia brassicicola; [5]): H (H shows more than 50% of control values); Test G (control value class) (Plasmopara viticola; [6]): L (L shows 50% or less of control values); Test D (control value class) [1, 7]: L (L shows 50% or less of control values)
